From PubChem BioAssay AID1460 (National Center for Advancing Translational Sciences (NCATS), 2008)
About 5,800 (2.1%) of roughly 270,000 compounds were called active. Inconclusive results, whose numbers are uncertain, are shown with a selection of clear calls. The call rests on the fitted dose curve; in most records, active means well fitted inhibition curve with a large enough effect; inconclusive means small, poorly fitted or top-dose-only effect; inactive means flat fitted curve, though single readings scatter. Where the call is inconclusive, the potency comes from a doubtful curve fit.

biological target: Microtubule-associated protein tau (Homo sapiens) (UniProt P10636); assay: qHTS for Inhibitors of Tau Fibril Formation, Thioflavin T Binding; conditions: recombinant tau K18 P301L (four-repeat tau fragment), heparin-induced fibrillization, ThT fluorescence; series mostly up to 57.4 µM; activity, negative = inhibition: at the top concentration; further: nearly all actives have a fitted effect of over 55% in size
In short: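 K18 P301L tau (15 uM + 0.24 uM Alexa 594-tagged), heparin 20 uM, NaOAc pH 7, 6 h 37 C; ThT 30 uM, 1 h RT, ex 450/em 510 nm.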
On the % scale 0 is the no-effect control and ±100 the full control effect; potency means the concentration at half of the fitted maximal effect; tags describe the fitted curve by direction and shape.

Sequence of UniProt P10636 (P10636 whole entry, looked up, the tested form may be a part): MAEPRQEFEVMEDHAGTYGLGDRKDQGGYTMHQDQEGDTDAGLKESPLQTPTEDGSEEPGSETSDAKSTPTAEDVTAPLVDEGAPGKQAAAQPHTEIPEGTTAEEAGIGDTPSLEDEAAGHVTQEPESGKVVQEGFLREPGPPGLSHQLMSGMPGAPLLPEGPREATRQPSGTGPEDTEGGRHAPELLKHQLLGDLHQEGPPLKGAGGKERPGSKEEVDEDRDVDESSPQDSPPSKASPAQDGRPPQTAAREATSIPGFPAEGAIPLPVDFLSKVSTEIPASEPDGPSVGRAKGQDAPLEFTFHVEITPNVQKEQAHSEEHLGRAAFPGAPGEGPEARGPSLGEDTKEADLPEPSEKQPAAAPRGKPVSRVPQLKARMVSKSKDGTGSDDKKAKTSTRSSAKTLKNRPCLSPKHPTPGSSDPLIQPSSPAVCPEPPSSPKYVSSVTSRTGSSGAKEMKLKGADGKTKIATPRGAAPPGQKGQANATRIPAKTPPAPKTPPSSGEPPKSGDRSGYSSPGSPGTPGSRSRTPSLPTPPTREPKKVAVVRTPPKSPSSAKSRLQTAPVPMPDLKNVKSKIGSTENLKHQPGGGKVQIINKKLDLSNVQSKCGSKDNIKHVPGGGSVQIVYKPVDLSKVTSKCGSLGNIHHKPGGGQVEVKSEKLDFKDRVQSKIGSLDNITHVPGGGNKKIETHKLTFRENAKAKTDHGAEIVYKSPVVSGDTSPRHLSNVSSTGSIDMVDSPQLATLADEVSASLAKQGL

SMILES	Potency	activity, negative = inhibition
COc1cccc(OC)c1Cn1nnc2c(=O)[nH]c(C3CCN(C(=O)c4ccccc4)CC3)nc21	inconclusive: 22.4 µM [inhibitor, single point]	
CC(C)(C)c1cc[n+](/C(C(=S)NC2CC2)=C(/[O-])c2ccc(Cl)s2)cc1	inconclusive: 14.1 µM [inhibitor, partial curve, poor fit]	
COc1ccc(-n2c(Cc3cccn3C)nnc2SCC(=O)Nc2cc(Cl)ccc2OC)cc1	inconclusive: 17.8 µM [inhibitor, partial curve, poor fit]	
COc1ccc(/C=C/C(=O)NC(=S)Nc2ccc(S(=O)(=O)Nc3nccnc3OC)cc2)cc1	inconclusive: 31.6 µM [inhibitor, partial curve]	
CCc1ccc(OCCCC(=O)Nc2ccc(N3CCOCC3)cc2)cc1	inconclusive: 4.47 µM [inhibitor, single point]	
Cc1cc(O)c(C=O)c2c1C(=O)Oc1c(C)c(O)c3c(c1O2)C(O)OC3=O (configuration not stated)	active: 7.94 µM	
CC(=O)N1CCN(c2ccc(NC(=O)C(C)Oc3ccc(Cl)cc3Cl)cc2)CC1 (configuration not stated)	inconclusive: 20 µM [inhibitor, partial curve]	
NC(=O)c1cc([N+](=O)[O-])ccc1NCc1cccnc1	inconclusive: 15.8 µM [inhibitor, partial curve, poor fit]	
Cc1ccnc2ccc(-c3nc4ccccc4o3)cc12	inconclusive: 17.8 µM [inhibitor, partial curve]	
Cc1ccc(C2C(/C=C3/SC(=S)NC3=O)=C(c3cccs3)Oc3ccccc32)cc1 (configuration not stated)	active: 12.6 µM	
Cn1c(-n2cccc2)c(-c2c(-c3ccc(F)cc3)[nH]c3c2c(=O)[nH]c(=O)n3C)c(=O)[nH]c1=O		inactive: 1.27%
Cc1ccc(CSCCNS(=O)(=O)c2ccc(C)cc2)cc1		inactive: -6.83%
CN1C(=O)c2ccccc2Sc2ccc(NC(=O)COc3ccc(Cl)cc3)cc21		inactive: 8.1%
Cc1ccc2nc(-c3ccc(NC(=O)COC(=O)c4cncc(Br)c4)cc3)sc2c1	inconclusive: 1.78 µM [inhibitor, full curve]	
Cc1cc(C(=O)CSc2nnc(-c3ccc(OC(F)F)cc3)o2)c(C)n1Cc1cccs1	inconclusive: 39.8 µM [inhibitor, single point]	
O=S(=O)(CC(CN1CCCC1)N1CCCC1)c1ccc2ccccc2c1 (configuration not stated)	inconclusive: 14.1 µM [inhibitor, partial curve]	
COc1ccc(-c2cn3cccnc3n2)cc1Br	inconclusive: 5.01 µM [inhibitor, single point]	
CCCCCn1c(N)c(C#N)c2nc3ccccc3nc21	inconclusive: 15.8 µM [inhibitor, partial curve]	
CCOc1ccc(CCNC(=O)c2ccc3c(c2)N(Cc2cccc(Cl)c2)C(=O)c2ccccc2S3(=O)=O)cc1OCC		inactive: 5.7%
O=C(NC(=S)Nc1nc2c(ccc3ccccc32)s1)c1cccs1	inconclusive: 7.94 µM [inhibitor, partial curve]	
CCOC(=O)N1CCc2c(sc(NCc3sccc3C)c2C(=O)Nc2ccccc2OCC)C1	inconclusive: 15.8 µM [inhibitor, partial curve]	

SMILES	Potency	activity, negative = inhibition
Cc1c(Cl)cccc1NC(=O)NCCOCCn1c(=O)oc2ccccc21		inactive: -17.4%
CC(C)(C)c1ccc(C(=O)Nc2ccc([N+](=O)[O-])cn2)cc1	inconclusive: 0.794 µM [inhibitor, full curve]	
COc1ccc2c(c1)c(=O)c(C(=O)c1ccc(Cl)cc1)cn2CC(=O)Nc1ccc2c(c1)OCO2	inconclusive: 44.7 µM [inhibitor, single point]	
CCc1cc(OCCN(C)C)ccc1Cl		inactive: -1.47%
CCCNC(=O)OC[C@H]1O[C@H](CCO/N=C(\C)CCN2CCc3nc(-c4ccccc4)c(-c4ccccc4)cc3C2)C=C[C@@H]1Oc1ccc(OC)cc1	inconclusive: 25.1 µM [inhibitor, single point]	
CC(C)c1nnc(NC(=O)c2nc(S(=O)(=O)Cc3ccccc3)ncc2Cl)s1	inconclusive: 3.55 µM [inhibitor, full curve]	
CSc1ccc(CCNC(=O)c2ccc3c(c2)nc2n3CCOC2)cc1	inconclusive: 15.8 µM [inhibitor, partial curve]	
CN1CCN(c2ccccc2NC(=O)c2ccc(-c3ccc(Cl)cc3Cl)o2)CC1	inconclusive: 11.2 µM [inhibitor, partial curve]	
Cc1cc(C)c2cc(CN(CCN3CCCC3)C(=O)Nc3ccc(F)cc3)c(=O)[nH]c2c1	inconclusive: 17.8 µM [inhibitor, single point]	
COc1ccc(NC(=O)N(Cc2ccco2)C2CCN(C(C)=O)CC2)c(OC)c1		inactive: -2.4%
Cc1cc(NC(=O)Nc2ccc(N(C)C)cc2)c2cc(F)cc(F)c2n1	inconclusive: 3.55 µM [inhibitor, full curve]	
Cc1ccc(-c2noc(C3CC(=O)N(c4ccc5c(c4)OCCO5)C3)n2)cc1 (configuration not stated)	inconclusive: 39.8 µM [inhibitor, single point]	
NC(=O)[C@H]1CC2(CC(c3cccc(NC(=O)COc4ccc(Cl)cc4)c3)=NO2)CN1C(=O)Cc1ccc([N+](=O)[O-])cc1 (some centres not stated)	inconclusive: 17.8 µM [inhibitor, partial curve]	
CCn1c(SCC(=O)Nc2ncc(C(F)(F)F)cc2Cl)nnc1-c1ccccc1		inactive: 4.09%
COc1ccc(C2CC(=O)c3c([nH]c(C(=O)OCCOc4ccccc4)c3C)C2)cc1OC (configuration not stated)		inactive: -0.133%
Cc1cccc(Nc2nc(-c3c(C)nc4ccccn34)cs2)c1	inconclusive: 14.1 µM [inhibitor, partial curve]	
COc1cccc(NC(=O)C2CCN(S(=O)(=O)c3cc(-c4noc(C)n4)ccc3C)CC2)c1		inactive: 10.8%
O=C(NC(=S)Nc1ccc(N2CCCCC2)c(Cl)c1)c1ccc2c(c1)OCCO2	inconclusive: 12.6 µM [inhibitor, partial curve]	
Cc1ccc(NC(=O)C(C)N2CCCC2)cc1Cl (configuration not stated)		inactive: -0.426%
Fc1ccc(/C=N/NC(=S)Nc2ccc(Cl)cc2Cl)cc1		inactive: 5.28%
Cc1cc(C(=O)N/N=C/c2ccc(N3CCOCC3)cc2)c(C)o1	active: 3.98 µM	
